# The campaign covered roughly 410,000 compounds. About 6,400 (1.6%) were called active. This list was built around the results that the source calls inconclusive (neither active nor inactive); the mix of calls is not that of the screen. The call rests on the fitted dose curve; in most records, active means well fitted inhibition curve with a large enough effect; inconclusive means small, poorly fitted or top-dose-only effect; inactive means no such curve, though single readings can be large or run the other way. No potency is given beside an inconclusive call; the fits are too rough.
# Biological target: Glucagon-like peptide 1 receptor (Homo sapiens) (UniProt P43220)
# Chain of UniProt P43220 (P43220 whole entry, looked up): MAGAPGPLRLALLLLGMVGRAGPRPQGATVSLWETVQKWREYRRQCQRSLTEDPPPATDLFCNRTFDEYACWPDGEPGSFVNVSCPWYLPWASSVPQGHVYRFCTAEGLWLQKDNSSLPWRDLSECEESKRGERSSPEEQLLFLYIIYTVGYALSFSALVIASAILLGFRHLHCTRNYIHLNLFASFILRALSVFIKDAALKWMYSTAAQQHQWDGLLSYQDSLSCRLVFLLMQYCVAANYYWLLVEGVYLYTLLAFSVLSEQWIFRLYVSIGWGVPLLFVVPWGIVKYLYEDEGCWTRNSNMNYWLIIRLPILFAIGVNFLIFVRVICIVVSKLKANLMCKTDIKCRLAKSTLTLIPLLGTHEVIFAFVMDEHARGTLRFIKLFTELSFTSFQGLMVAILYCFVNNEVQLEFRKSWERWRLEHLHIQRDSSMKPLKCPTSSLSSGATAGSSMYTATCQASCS
# Test: qHTS of GLP-1 Receptor Inverse Agonists (Inhibition Mode); further: nearly all actives have a fitted effect of over 55% in size
# Settings: HEK293 GLP-1R CRE-luciferase, luminescence, 24 h, GLP-1R form is constitutively active; activity change, negative = inhibition: at 38.3 µM (top of the series) unless noted
# Method in brief: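 Cells are plated, allowed 12 hours at 37 deg C, then treated with compounds for 24 hr before luciferase detection reagent is added and luminescence is read after 12 min at room temperature. The HEK293 line carries constitutively active GLP-1R with a cAMP-responsive reporter.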
# On the % scale 0 is the no-effect control and ±100 the full control effect; potency means the concentration at half of the fitted maximal effect; tags describe the fitted curve by direction and shape.
SMILES,Potency,"activity change, negative = inhibition"
O=S(=O)(c1ccc(F)c(F)c1F)N1CCN(C(=S)Nc2ccccc2)CC1,"inconclusive [inhibitor, partial curve, poor fit]",
CC(NC(=O)CCSc1nc(-c2ccco2)cc(C(F)(F)F)n1)c1ccccc1 (centres undefined),"inconclusive [inhibitor, partial curve, poor fit]",
O=C(Nc1ccccc1)OC1CCCCc2cccnc21 (centres undefined),"inconclusive [inhibitor, single point]",
CCOC(=O)c1c(/N=C/N(C)C)sc(/C=N/Nc2ccccc2)c1-c1ccc(Cl)cc1,active: 10 µM,
O=C(N/N=C/C(Br)=C/c1ccccc1)c1cccnc1,"inconclusive [inhibitor, single point]",
Cc1ccc(C(=O)OCc2nnc(-c3ccccc3)o2)o1,,inactive: -11.4%
S=C(NN=C(C1CC1)C1CC1)Nc1ccccc1,,inactive: -4.29%
Cc1ccc(C)n1-c1nnc(N2CCC(C(=O)Nc3ccccc3Br)CC2)s1,,inactive: -4.64%
N#Cc1ccccc1N/C=C/C(=O)c1ccc(Cl)cc1,active: 6.31 µM,
O=C(CC1N=C2c3ccccc3N=C(SCC(=O)Nc3cccc(Cl)c3)N2C1=O)NCc1cccs1 (centres undefined),,inactive: 9.56%
CC(=O)Nc1ccc(C(=O)N/N=C/c2ccccc2OC(=O)c2ccc(Cl)cc2)cc1,"inconclusive [inhibitor, partial curve, poor fit]",
CC1CCN(CCc2nc3cc(NC(=O)COc4ccc(Cl)cc4)ccc3n2C)CC1,"inconclusive [inhibitor, partial curve, poor fit]",
CCCCCCCCOC(=O)c1nc(Cl)c(Cl)c(N)c1Cl,"inconclusive [inhibitor, single point]",
CCOc1ccc(S(=O)(=O)/N=C(/Nc2ccc(OC)cc2)c2ccccc2)cc1,"inconclusive [inhibitor, single point]",
Cc1ccc(C(C(=O)NCc2ccc(F)cc2)N(CCCO)C(=O)C2COc3ccccc3O2)o1 (centres undefined),"inconclusive [inhibitor, single point]",
CC(=O)Nc1ccc(Nc2nc(C)nc3c2oc2ccccc23)cc1,,inactive: 27.1%
N#CC(c1ccc(F)cc1)c1ccc(C(=O)c2ccccc2)cc1 (centres undefined),"inconclusive [inhibitor, partial curve, poor fit]",
CCCC(=O)NC(=S)c1c(C)n(C)n(-c2ccccc2)c1=O,,inactive: 36.4%
COc1ccc(C(=O)NNC(=O)c2cc3cccc(OC)c3oc2=O)cc1,,inactive: 21.9% [at 7.66 µM]
Cc1cc(Nc2cccc(Cl)c2)nc(-c2ccccc2O)n1,"inconclusive [inhibitor, full curve]",
CCc1ccc(C(C(=O)NC2CCCCC2)N(C(=O)c2csnn2)C2CC2)cc1 (centres undefined),"inconclusive [inhibitor, partial curve, poor fit]",
Cc1ccc(-c2nc(C)sc2CC(=O)Nc2cccc(C)c2C)cc1,"inconclusive [inhibitor, single point]",

SMILES,Potency,"activity change, negative = inhibition"
Cc1cc2ccccc2n1CCNC(=O)C(C)Oc1ccccc1 (centres undefined),"inconclusive [inhibitor, partial curve, poor fit]",
Fc1ccc(NC(=S)N/N=C/c2ccc(F)c(F)c2)c(F)c1,,inactive: -3.94%
COCCNc1ncnc2c1cnn2-c1ccc(Cl)cc1,,inactive: -26%
COc1ccc(C(=O)N[C@H](C(=O)Nc2nc3c(s2)CCCC3)C(C)C)cc1,"inconclusive [inhibitor, single point]",
CC(C)CC(NC(=O)c1cccs1)c1nnc(SCc2ccc(Cl)c(Cl)c2)n1C (centres undefined),"inconclusive [inhibitor, partial curve, poor fit]",
CCc1ccc(S(=O)(=O)NCC2(N3CCOCC3)CCCCC2)cc1,"inconclusive [inhibitor, single point]",
CCn1ccc2cc(S(=O)(=O)N3CCCN(C(=O)Nc4ccccc4C(F)(F)F)CC3)ccc21,,inactive: 3.06%
Cc1ccc(NC(=O)CN2C(=O)NC(C)(CC(C)C)C2=O)c(Br)c1 (centres undefined),"inconclusive [inhibitor, single point]",
CCc1nc(NC(C)C)c2oc3ccccc3c2n1,"inconclusive [inhibitor, single point]",
NC(=O)c1ccsc1NC(=O)c1ccc(N2CCCC2=O)cc1,"inconclusive [inhibitor, partial curve]",
C[C@H](O)[C@@H]1C(=O)N2CCc3c([nH]c4ccccc34)[C@@H]2C[C@@H]1N(C)C(=O)Nc1ccccc1,,inactive: -25.2%
CCc1c(C(=O)Nc2ccc(OC)c(Cl)c2)[nH]c(C)c1C(C)=O,"inconclusive [inhibitor, single point]",
COc1ccc(/C=N/NC(=O)c2ccoc2C)cc1CN1CCN(c2ccc(F)cc2)CC1,"inconclusive [inhibitor, partial curve, poor fit]",
CCCC(=O)N1CCN(c2nc3ccccc3s2)CC1,"inconclusive [inhibitor, single point]",
Cc1cccc(Cn2ncc(Cl)c(Cl)c2=O)c1,,inactive: -7.19%
O=C(CSc1cccc[n+]1[O-])CSc1cccc[n+]1[O-],"inconclusive [inhibitor, full curve, poor fit]",
Cc1cc(C)c(-c2csc(NC(=O)/C=C/c3cccs3)n2)c(C)c1,active: 3.16 µM,
O=C(Nc1ccc(NC(=O)c2ccc3c(c2)OCCO3)cc1)c1ccccc1,,inactive: 70.4%
CC(C)C[C@H]1CNC(=S)N1C[C@H]1CCCN1C[C@H](Cc1ccccc1)N1C[C@H](CC(C)C)N(CCc2ccccc2)C1=S,"inconclusive [inhibitor, partial curve, poor fit]",
CCOC(=O)c1cc(NC(=O)COc2ccc([N+](=O)[O-])cc2)cc(C(=O)OCC)c1,"inconclusive [inhibitor, partial curve, poor fit]",
OC[C@@H]1CN(Cc2cccs2)C[C@H](n2cnc3c(NCc4ccncc4)ncnc32)O1,,inactive: 18.3%
CC(/C=N/Nc1nnc(C)c(=O)[nH]1)=C\c1ccccc1,,inactive: 29.6%

# From PubChem BioAssay AID624417 (National Center for Advancing Translational Sciences (NCATS), 2012)
